According to paper PMC4336329 (PLoS ONE, 2015):
Hit rate of the full screen: of about 310,000 compounds, about 2,200 (0.71%) showed an effect of 50% or more. The effect is printed as a negative number. This is one part of the list.

These compounds were tested against human ether-à-go-go-related gene (hERG) potassium channel (human, UniProt Q12809) (assay: primary screen, population patch clamp on CHO cells stably expressing hERG).
human ether-à-go-go-related gene (hERG) potassium channel, sequence (Q12809 whole entry, looked up): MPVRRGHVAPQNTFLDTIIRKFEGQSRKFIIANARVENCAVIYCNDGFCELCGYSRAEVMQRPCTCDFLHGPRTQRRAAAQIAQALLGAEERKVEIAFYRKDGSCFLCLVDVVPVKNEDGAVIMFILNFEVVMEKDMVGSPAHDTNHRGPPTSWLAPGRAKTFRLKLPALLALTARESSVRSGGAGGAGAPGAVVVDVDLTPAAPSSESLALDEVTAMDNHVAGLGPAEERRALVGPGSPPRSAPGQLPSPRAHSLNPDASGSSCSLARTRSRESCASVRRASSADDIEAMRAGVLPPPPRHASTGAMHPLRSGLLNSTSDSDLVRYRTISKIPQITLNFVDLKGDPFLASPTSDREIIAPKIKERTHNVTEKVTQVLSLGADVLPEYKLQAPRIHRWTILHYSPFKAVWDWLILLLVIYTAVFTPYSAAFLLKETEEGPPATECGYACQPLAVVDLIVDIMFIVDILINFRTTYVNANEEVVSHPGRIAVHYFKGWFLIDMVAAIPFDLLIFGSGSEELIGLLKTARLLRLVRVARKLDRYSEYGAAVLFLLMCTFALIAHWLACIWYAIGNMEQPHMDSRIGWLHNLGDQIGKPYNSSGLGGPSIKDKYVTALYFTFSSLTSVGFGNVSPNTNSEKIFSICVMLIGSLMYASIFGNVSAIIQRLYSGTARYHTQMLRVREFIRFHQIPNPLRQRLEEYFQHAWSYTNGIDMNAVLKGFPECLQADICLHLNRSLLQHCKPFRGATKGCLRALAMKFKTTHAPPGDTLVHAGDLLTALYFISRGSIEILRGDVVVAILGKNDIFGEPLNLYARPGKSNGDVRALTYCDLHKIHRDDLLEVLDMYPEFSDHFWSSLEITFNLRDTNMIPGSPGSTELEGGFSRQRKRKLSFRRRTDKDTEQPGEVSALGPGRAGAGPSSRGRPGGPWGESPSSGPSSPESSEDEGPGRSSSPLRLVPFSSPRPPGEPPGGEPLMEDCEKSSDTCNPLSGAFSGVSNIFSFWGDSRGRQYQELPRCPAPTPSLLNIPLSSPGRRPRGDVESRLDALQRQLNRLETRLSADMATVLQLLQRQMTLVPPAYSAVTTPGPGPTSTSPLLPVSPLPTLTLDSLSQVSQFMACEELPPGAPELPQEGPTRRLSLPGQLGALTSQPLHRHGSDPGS

| SMILES | hERG current change (%, negative = inhibition) at 1uM [%] |
| --- | --- |
| OCc1nc2ccccc2n1CCc1ccccc1 | 13.9 |
| CCc1cccc(NC(=O)CCNS(=O)(=O)c2ccc3[nH]c(=O)oc3c2)c1 | 14.7 |
| Cc1cccc(CNc2ncnc3ccc(-c4ccoc4)cc23)c1 | 17 |
| CCCn1nnc(NC(=O)c2cccc(OCC)c2)n1 | -1.29 |
| COc1ccc(-c2oc3ncnc(N)c3c2-c2ccccc2)cc1 | 11.1 |
| COc1ccc(C(=O)NC(=S)Nc2ccc3[nH]c(=O)[nH]c3c2)cc1 | 13 |
| NS(=O)(=O)c1ccc(CCNC2CC(=O)N(CCc3ccccc3)C2=O)cc1 (stereo not shown) | 4.99 |
| CCCN(CC(=O)Nc1ccccc1C)C(=O)c1ccc(C)c(S(=O)(=O)N2CCCCC2)c1 | 12.6 |
| CCOc1ccc(-n2ccc(=O)c(C(=O)O)n2)cc1 | 20.2 |
| c1ccc(Cn2ncc3c(N4CCOCC4)ncnc32)cc1 | -2.09 |
| N#Cc1ccc(C23CC4(C2)[C@H](CN(P(=O)(c2ccccc2)c2ccccc2)[C@@H]4c2ccccc2)C3c2ccc(Cl)nc2)cc1 (stereo partly shown) | 8.64 |
| CCOc1ccc(C(=O)Nc2cccc(-c3ccc(N4CCOCC4)nn3)c2)cc1OCC | 15.3 |
| CCNC(=O)CN(c1ccc(OC)c(OC)c1)S(=O)(=O)c1ccccc1 | 5.2 |
| O=S(=O)(NCCNc1nccc(C(F)(F)F)n1)c1ccccc1 | 9.51 |
| COc1ccc(N2CCN(C(=O)c3ccccc3NC(=O)c3ccccc3)CC2)cc1 | 3 |
| O=C(CSc1nc(-c2ccccc2)c(-c2ccccc2)o1)Nc1nncs1 | 10.3 |
| O=P1(NCCCn2cc[n+](Cc3nc4ccccc4[nH]3)c2)C=C(c2ccccc2)OC(c2ccccc2)=C1.[Cl-] | -17.6 |
| COc1cccc(OCC(=O)N(Cc2nc(-c3ccc(Cl)cc3)no2)C(C)C)c1 | 5.01 |
| CCCCC(=O)Nc1ccc(C(=O)NNC(=O)c2ccco2)cc1 | 14.5 |
| c1ccc(-c2nnc3sc(-c4cc5ccccc5o4)nn23)cc1 | 14.4 |
| CN(C)S(=O)(=O)c1ccc(Cl)c(NC(=O)COC(=O)CN2C(=O)NC(C)(C)C2=O)c1 | 3.03 |
| O=C(NCc1ccccc1C(F)(F)F)C1CC(c2cc(C(F)(F)F)cc(C(F)(F)F)c2)=NO1 (stereo not shown) | 9.2 |

| SMILES | hERG current change (%, negative = inhibition) at 1uM [%] |
| --- | --- |
| O=C1C(=O)N(CCN2CCOCC2)C(c2ccccn2)/C1=C(/O)c1ccccc1 (stereo not shown) | 5.14 |
| CCCOc1cc(N)ccc1C(=O)OCCN(CC)CC.Cl | -6.98 |
| Cc1ccnc(NC(=O)c2cccc(NC(=O)CC3SC(N4CCCCC4)=NC3=O)c2)c1 (stereo not shown) | -0.0957 |
| CCOC(=O)C(NC(=O)CC)(Nc1cc(C)on1)C(F)(F)F (stereo not shown) | -2.69 |
| CCCNC(=O)c1nc(C)n(-c2cc(Cl)ccc2Cl)n1 | 18.1 |
| CC1CCC(NC(=O)COC(=O)c2cccnc2Cl)CC1 (stereo not shown) | -5.81 |
| NC(=O)COc1ccc(/C=N/NS(=O)(=O)c2ccccc2)cc1 | 10.3 |
| COCC1CCCCN1Cc1cn(-c2ccccc2)nc1-c1ccc2c(c1)OCO2 (stereo not shown) | 6.58 |
| CCNc1ccc(C(=O)OCC(=O)N2CCCC2)cc1[N+](=O)[O-] | 5.74 |
| O=S(=O)(Cc1ccc(Cl)cc1)NCC1CCCO1 (stereo not shown) | 2.48 |
| NS(=O)(=O)c1ccc(NS(=O)(=O)c2cccs2)cc1 | 20.3 |
| Fc1ccc2[nH]c3c(N4CCN(C5CCCCC5)CC4)ncnc3c2c1 | -3.08 |
| CC(=O)N1CCN(S(=O)(=O)c2cccc(C(=O)Nc3ccc(F)c(F)c3)c2)CC1 | -38.1 |
| CCN1CCN(C(=O)c2ccc(C(F)(F)F)cc2)CC1 | 12.8 |
| CCOc1ccc(CNC(=O)c2ccc(Sc3ccc(Cl)cc3)c(NC(C)=O)c2)cc1 | 12.8 |
| O=C(O)C(=O)O.c1ccc(CCNC2CCCCCC2)cc1 | 1.13 |
| O=C(NC(=S)Nc1ccccc1C(F)(F)F)c1ccccc1F | 21.4 |
| CC(=O)Nc1ccc(C(=O)OCc2ccc(F)cc2)cc1 | 8.07 |
| Nn1c(SCC(=O)NCCc2ccc(F)cc2)nnc1C1CCCCC1 | 8.13 |
| O=C(NNC(=O)c1cc(-c2ccncc2)nc2ccccc12)c1cccc(Cl)c1 | 1.53 |
| Clc1ccc(N=NN2CCOCC2)cc1 | 11.4 |
| CCOC(=O)C1CCN(c2c(NCCCN(C)C3CCCCC3)c(=O)c2=O)CC1 | 5.2 |

| SMILES | hERG current change (%, negative = inhibition) at 1uM [%] |
| --- | --- |
| COc1ccc(C)cc1S(=O)(=O)N1CCCC(C(=O)N2CCOCC2)C1 (stereo not shown) | 28.6 |
| O=S(=O)(c1ccccc1)c1nc(-c2ccco2)oc1NCc1ccccc1 | 1.07 |
| CC(=O)N(CCCc1ccc(C(C)(C)C)cc1)CCCN(C)C | -9 |
| COc1ccc2cc(S(=O)(=O)n3cnc(C)c3)ccc2c1 | 17.1 |
| COCCn1cnnc1SCC(=O)Nc1cc(OC)c([N+](=O)[O-])cc1C | 7.09 |
| C(=N\n1cnnc1)/c1cccc2ccccc12 | 14.1 |
| O=C(CN1CCN(c2ccc(O)cc2)CC1)NCC(=O)Nc1ccc(F)c(F)c1F | -0.0036 |
| O=C(CN1C(=O)COc2ccccc21)N1CCN(c2ccccc2F)CC1 | 8.93 |
| O=S(=O)(Nc1nc2c(s1)CCCC2)c1ccc(Br)cc1 | 6.62 |
| CCCCn1c(N)c(N(CC(C)C)C(=O)C2=NN(c3ccccc3)C(=O)CC2)c(=O)[nH]c1=O | 8.93 |
| COc1cc2cc(CN(CCc3ccccc3C)C(=S)NCCCN(C)C)c(=O)[nH]c2cc1OC | 3.04 |
| Cc1nn(CC(=O)NCCCN2CC(C)CC(C)C2)c(=O)c2cccn12 (stereo not shown) | 22.4 |
| O=C(Nc1ccc(C(=O)N2CCOCC2)cc1)c1ccc([N+](=O)[O-])cc1 | 5.77 |
| COc1cccc(CNC(=O)CCS(=O)(=O)c2ccccc2Cl)c1 | 10.1 |
| Cc1cc2nc(CCN3CCOCC3)n(S(=O)(=O)c3ccc(C(C)(C)C)cc3)c2cc1C | 5.15 |
| Cc1ccc2oc(=O)n(CCCOc3ccccc3C)c2c1 | 12.5 |
| CCN(CC(=O)Nc1c(F)cccc1F)C(=O)C1CC(=O)N(CCc2ccccc2)C1 (stereo not shown) | 0.0762 |
| O=C1CC2(CCN(C(=O)c3ccc([N+](=O)[O-])cc3)CC2)Oc2ccccc21 | -87.5 |
| Cc1ccc(-c2cc(C(=O)N/N=C/c3cccnc3)c3ccccc3n2)cc1C | 18.4 |
| CC(=O)NC(N1CCCCC1)C(F)(F)C(F)(F)C(F)(F)C(F)F (stereo not shown) | 5.03 |
| Brc1ccccc1-c1nnc2sc(Cc3ccccc3)nn12 | 4.98 |
| COc1ccc(NC(=O)c2nnn(CC(=O)Nc3ccccc3OC)c2N)c(OC)c1 | 11.2 |

| SMILES | hERG current change (%, negative = inhibition) at 1uM [%] |
| --- | --- |
| COc1cc(-c2nc3ccccc3nc2-c2ccc(O)c(OC)c2)ccc1O | 16.3 |
| COc1ccccc1N1CCN(S(=O)(=O)c2ccc3nc(-c4ccccc4)[nH]c3c2)CC1 | -2.51 |
| COc1ccc(C(=O)COC(=O)c2ccn(C)n2)cc1 | 9.85 |
| CCOC(=O)c1[nH]c2ccccc2c1NC(=O)c1ccc(S(=O)(=O)N2CCOCC2)cc1 | 7.67 |
| COc1ccc(CNC(=O)CCc2c(C)nc3cc(-c4ccccc4OC)nn3c2C)cc1 | -0.803 |
| CSC1=C(C#N)C(CC(C)C)C(C(C)=O)=C(C)N1 (stereo not shown) | 6.89 |
| Cc1cc(C)c(NC(N)=S)c(C)c1 | 12.3 |
| O=C(Nc1ccc(F)cc1)N1CCc2ccccc2C1 | 10.6 |
| O=c1cc(NCc2ccco2)c2ccccc2o1 | 11.6 |
| O=C(N/N=C/c1cccnc1)c1ccc(NC(=O)c2cccc(Cl)c2)cc1 | 17.5 |
| Cl.c1ccc2c(c1)N1CCN=C1N2CCN1CCCCC1 | 3.76 |
| CCC(=O)Nc1ccc(S(=O)(=O)Nc2nccs2)cc1 | 21.5 |
| COc1ccc(C(C(=O)OCCN(C)C)c2ccccc2)cc1.Cl (stereo not shown) | -2.84 |
| CNC(=O)c1cc(S(=O)(=O)Nc2ccc3c(c2)OCCO3)ccc1C | 12.2 |
| CC(=O)c1cc(NC(=O)c2ccccc2)c(=O)oc1C | 13.8 |
| COc1ccc(-c2cc(CNC(=O)CN3CCN(C)CC3)on2)cc1 | 9.87 |
| COc1cc(C)c(NC(=S)Nc2ccc(Cl)c(Cl)c2)cc1OC | 15.7 |
| Cc1ccccc1-c1nc(Cc2ccc(Cl)cc2)no1 | 12.7 |
| CC1(C)CC(=O)C2=C(C1)N=C1c3ccccc3C(=O)C1C2c1ccc(Cl)cc1 (stereo not shown) | 14.3 |
| CCC(CCC(=O)Nc1ccc(S(N)(=O)=O)cc1)C(=O)O (stereo not shown) | 2.72 |
| COc1cc(NC(=O)c2ccccc2)c(OC)cc1NC(C)=O | 0.426 |
| COc1ccc(C(=O)Nc2ccc(-c3ccc(C)o3)cc2)cc1S(=O)(=O)N1CCOCC1 | 12.2 |
